The record followed here is publication PMC6471242, “Dereplication by High-Performance Liquid Chromatography (HPLC) with Quadrupole-Time-of-Flight Mass Spectroscopy (qTOF-MS) and Antiviral Activities of Phlorotannins from Ecklonia cava” (Marine Drugs, 2019).

The subject of the test is H1N1 A/PR/8/34 virus. The test can be described thus: Cytopathic effect (CPE) inhibition assay in MDCK cells, H1N1. The settings on record: Influenza A virus, 72 h, three days of incubation, mean ± SD, read-out: EC50 (effective concentration). The format is cell-based. (In general: Damage to the host cells serves as the signal in cytopathic effect assays.)
Regarding `Oc1cc(O)cc(Oc2c(O)cc(O)c3c2Oc2c(O)cc(Oc4c(O)cc(Oc5c(O)cc(O)c6c5Oc5c(O)cc(O)cc5O6)cc4O)cc2O3)c1` [Compound 11, Dieckol], the EC50 came out at 17.3 µM.
As for `Oc1cc(O)cc(Oc2c(O)cc(O)c3c2Oc2c(O)cc4oc5c(Oc6cc(O)cc(O)c6)c(O)cc(O)c5c4c2O3)c1` [Compound 12, Phlorofucofuroeckol A], the EC50 turned out to be 13.5 ± 1.93 µM.
As for `Oc1cc(O)c2c(c1)Oc1c(O)cc(O)cc1O2` [Compound 13, Dibenzo[1,4]dioxine-2,4,7,9-tetraol], the EC50 was found to be 23.9 µM.
Turning to `Oc1cc(O)c2oc3cc(O)c4oc5cc(O)cc(O)c5oc4c3oc2c1` [Compound 14, Dioxinodehydroeckol], the EC50 stood at 23.4 µM.
With `NC(=O)c1ncn([C@@H]2O[C@H](CO)[C@@H](O)[C@H]2O)n1` [Ribavirin, ribavirin, reference compound] the figure was 4.29 µM.
